Test results reported in patent US11505533B2, “Metabolically stable N-acylaminooxadiazoles useful as antibacterial agents” (MICROBIOTIX, INC., priority 2017, dated 2022).
In brackets after ≈: the same amount, converted by molar mass.

Columns and labels:
[1] = test system: Neisseria gonorrhoeae strain H041(STMR); test: Vaginal gonococcal murine model
Experimental: FIG. 5 is a graph showing the combined data for two independent in vivo efficacy studies of oral administration of uriedo aminooxadiazole derivative MBX-4132 to female mice infected with Neisseria gonorrhoeae strain H041(STMR) in a vaginal gonococcal murine model. For a published description of the efficacy model, see, Butler, M. et. al., Antimicrobial Agents Chemother., 62(5):e00321 (2018). MBX-4132 was administered (3.3 or 10 mg/kg, PO) once 2 days following infection.
Two separate efficacy studies examined oral efficacy against a murine model of vaginal gonococcal infection. These studies utilized the strain H041, a highly drug-resistant Ng clinical isolate described by Ohnishi et. al. Antimicrob. Agents Chemother., 55(7): 3538 (2011). Each study was performed using both untreated and gentamycin (48 mg/kg IP, QD 5 days) controls (representing 2 experimental groups). In each of two experiments, the test agent was MBX-4132 given as an oral dosage at either 3.3 mg/kg or 10 mg/kg via a single oral dosage. Two days prior to experiments, female BALB/c mice were treated with 17β-estradiol and antibiotics to increase their susceptibility to Ng as described previously (Jerse et. al., Frontiers Microbial., 2: 107 (2011)).
On day 0, mice were inoculated vaginally with 20 μl of strain H041(STM^R) suspended in PBS; suspensions adjusted to 5×10^5 CFU/ml (infectious dose 80; ID80). For H041(STM^R), the ID80 is 10^4 CFU/mouse. Vaginal swabs were quantitatively cultured for Ng on days 1 and 2 following vaginal inoculation to confirm infection prior to treatment. A portion of the swab sample was also inoculated onto HIA agar to monitor commensal flora. Test and control antibiotics were administered on day 2 post-bacterial inoculation after the day 2 culture was collected and for four more consecutive days. […] Vaginal swabs were quantitatively cultured for N. gonorrhoeae for 8 consecutive days following treatment. […] The number of viable bacteria recovered was determined using the Spiral Biotech Q-Counter Software. […]

[2] = test system: trans-translation (non-stop ribosome rescue); test: microbe, parasite or virus in culture; details: Escherichia coli, read-out: AVG Luc IC50 ΔtolC (μM)
Source text: The reporter contains a gene encoding luciferase with a strong transcriptional terminator inserted before the stop codon, such that transcription results in a nonstop mRNA. E. coli cells containing the reporter were screened in high-throughput format to identify compounds that inhibit trans-translation. When no inhibitor is present, translation of the nonstop mRNA results in trans-translation followed by proteolysis of luciferase, and cells produce no luminescence. Conversely, active luciferase is produced when a trans-translation inhibitor is present, resulting in luminescence. (See, FIG. 2.)
To verify that analogs with potent antibacterial activity inhibit non-stop ribosome rescue, the inhibitors were tested against a cell-based non-stop ribosome rescue reporter assay that was constructed in an efflux-deficient strain of E. coli. The gain-of-signal assay may be performed essentially as previously described in Ramadoss et al., Proc. Natl. Acad. Sci. U.S.A., 110(25): 10282-7 (2013), except that the dose-dependent increase of signal is used to calculate the compound concentration that produces half maximal induction of the reporter (EC50).

[3] = test system: E. coli (701, TolC−) efflux neg; test: microbe, parasite or virus in culture; assay type: cell-based; details: Escherichia coli

Compound	IC50 [2] [µM]	MIC [3] [µg/mL]	other results
O=C(Nc1nnc(-c2ccc(F)cc2)o1)N1CCc2ccccc2C1 [MBX-4132]	–	–	clearance rate ([1]; 3.3 mg/kg PO once, 2 d after infection): 60%; effect relative to untreated controls ([1]; 3.3 mg/kg PO once, p=0.058): a smaller effect, failing to achieve statistical significance; mice completely cleared of infection ([1]; 10 mg/kg PO once, 2 d after infection, within 6 days of treatment, two experiments combined): 80%
O=C(Nc1nnc(-c2ccc(F)cc2)o1)N1CCc2ccccc2C1 [compound 4132, N-[5-(4-fluorophenyl)-1,3,4-oxadiazol-2-yl]-3,4-dihydroisoquinoline-2(1H)-carboxamide]	0.593	2.14 (≈ 6.32 µM)	–
O=C(Nc1nnc(-c2ccc(F)cc2)o1)c1ccc(Oc2ccccc2)nc1 [compound 4237, 2-(6-phenoxynicotinamido)-5-(4-fluorophenyl)-1,3,4-oxadiazole]	0.238	0.6 (≈ 1.59 µM)	–
CCN(c1ccccc1)c1ccc(C(=O)Nc2nnc(-c3ccc(F)cc3)o2)cc1 [compound 4285]	–	13.3 (≈ 33 µM)	–
CC(C)(C)OC(=O)N1CC(Oc2ccc(C(=O)Nc3nnc(-c4ccc(F)cc4)o3)cc2)C1 [compound 4288]	–	1.59 (≈ 3.5 µM)	–
O=C(Nc1nnc(-c2ccc(F)cc2)o1)c1ccc(OC2CCCCC2)cc1 [compound 4292]	0.26	0.43 (≈ 1.13 µM)	–
O=C(Nc1nnc(-c2ccc(F)cc2)o1)c1ccc(OC2CCCC2)cc1 [compound 4293]	0.278	0.51 (≈ 1.39 µM)	–
O=C(Nc1nnc(-c2ccc(F)cc2)o1)c1ccc(Oc2cccc(O)c2)cc1 [compound 4304]	0.78	–	–
Cc1ccc(Oc2ccc(C(=O)Nc3nnc(-c4ccc(F)cc4)o3)cc2)cc1 [compound 4305]	0.259	–	–
Cc1cccc(Oc2ccc(C(=O)Nc3nnc(-c4ccc(F)cc4)o3)cc2)c1 [compound 4306]	0.37	–	–
COc1ccc(Oc2ccc(C(=O)Nc3nnc(-c4ccc(F)cc4)o3)cc2)cc1 [compound 4310]	0.35	–	–
O=C(Nc1nnc(-c2ccc(F)cc2)o1)N1Cc2ccccc2C1 [compound 4330]	0.15	2.02 (≈ 6.23 µM)	–
O=C(Nc1nnc(-c2ccc(F)cc2)o1)N1CCc2cc(F)ccc2C1 [compound 4331]	0.13	1.11 (≈ 3.12 µM)	–
O=C(Nc1nnc(-c2ccc(F)cc2)o1)N1CCc2ccc(F)cc2C1 [compound 4332]	0.11	1.11 (≈ 3.12 µM)	–
C=CCN(C)C(=O)Nc1nnc(-c2ccc(F)cc2)o1 [compound 4345]	–	6.9 (≈ 25 µM)	–
O=C(Nc1nnc(-c2ccc(F)cc2)o1)N1CC=C(C(F)(F)F)CC1 [compound 4347]	0.14	27 (≈ 75.8 µM)	–
CC(Oc1ccc(C(=O)Nc2nnc(-c3ccc(F)cc3)o2)cc1)c1ccccc1 (stereo not drawn) [compound 4357]	0.123	–	–
